In the supplement of paper PMC4967469:
IC50 is the fitted dose that halves viability relative to control wells, and lower means more sensitive; a limit (>, <) means that the fit lies beyond the doses tested. AUC sums up the same curve from the lowest dose to the 256-fold higher top dose; the more sensitive the line, the further below 1. For some of these results: Where the top dose is marked as inferred, it comes from the curve model; the source does not state it.

What was measured:
Assay in all cases: Viability of human cancer cell lines after 72 h of drug (GDSC screen)
[1] = compound: Oc1nc(-c2ccc(C(F)(F)F)cc2)nc2c1CSCC2 [XAV 939]; conditions: top dose 5 µM; top dose inferred
Description: (§1)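 Human cancer cell lines in 384-well plates, medium with 10% serum, drug for 72 h over a 256-fold dose range (nine 2-fold or five 4-fold steps up to the top dose). Adherent lines were fixed and stained with the nucleic acid dye Syto60, suspension lines read with resazurin; signal relative to control wells, capped at 0 and 100%. One two-parameter sigmoid per drug and line, fitted in a mixed model over all curves with the slope shared within a line.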

[2] = compound: COc1ccc(C(=O)CC2(O)C(=O)Nc3c(Cl)ccc(Cl)c32)cc1 [YK 4-279]; conditions: top dose 10 µM
Description: as §1

[3] = compound: C=C(c1ccc(C(=O)O)cc1)c1cc2c(cc1C)C(C)(C)CCC2(C)C [Bexarotene]; conditions: top dose 8 µM
Description: as §1

[4] = compound: O=C(O)c1ccc(-c2c[nH]c3ncc(-c4ccccc4)cc23)cc1C1CCCC1 [GSK-650394]; conditions: top dose 16 µM; top dose inferred
Description: as §1

[5] = compound: Cc1ccc2nc(NCCN)c3ncc(C)n3c2c1 [BMS-345541]; conditions: top dose 16 µM
Description: as §1

[6] = compound: NC(=O)Nc1cc(-c2cccc(F)c2)sc1C(=O)N[C@H]1CCCNC1 [AZD7762]; conditions: top dose 2 µM
Description: as §1

[7] = compound: COc1cc([C@@H]2c3cc4c(cc3[C@@H](O[C@@H]3O[C@@H]5CO[C@@H](C)O[C@H]5[C@H](O)[C@H]3O)[C@H]3COC(=O)[C@H]23)OCO4)cc(OC)c1O [Etoposide]; conditions: top dose 16 µM
Description: as §1

[8] = compound: COc1cc(C(=O)NC2CCN(C)CC2)ccc1Nc1ncc2c(n1)N(C1CCCC1)C(C)CC(=O)N2C [NPK76-II-72-1]; conditions: top dose 10.24 µM; top dose inferred
Description: as §1

Cell Line | AUC [1] | IC50 [1] [µM] | AUC [2] | IC50 [2] [µM] | AUC [3] | IC50 [3] [µM] | AUC [4] | IC50 [4] [µM] | AUC [5] | IC50 [5] [µM] | AUC [6] | IC50 [6] [µM] | AUC [7] | IC50 [7] [µM] | AUC [8] | IC50 [8] [µM]
COLO-783 (melanoma, adherent) | 0.99 | > 5 | 0.788 | 4.2 | 0.991 | > 8 | 0.991 | > 16 | 0.912 | > 16 | 0.638 | 0.296 | 0.99 | > 16 | 0.971 | > 10.2
COLO-824 (breast, adherent) | 0.978 | > 5 | 0.853 | 8.04 | 0.978 | > 8 | 0.93 | > 16 | 0.909 | > 16 | 0.898 | > 2 | 0.919 | > 16 | 0.767 | 3.88
COR-L23 (large cell lung carcinoma, adherent) | 0.946 | > 5 | 0.785 | 4.14 | 0.922 | > 8 | 0.688 | 3.31 | 0.895 | > 16 | 0.698 | 0.443 | 0.782 | 6.48 | 0.816 | 5.49
COR-L88 (small cell lung carcinoma, adherent) | 0.976 | > 5 | 0.952 | > 10 | 0.968 | > 8 | 0.951 | > 16 | 0.901 | > 16 | 0.825 | 1.52 | 0.877 | > 16 | 0.617 | 1.43
COR-L95 (small cell lung carcinoma, adherent) | 0.985 | > 5 | 0.959 | > 10 | 0.978 | > 8 | 0.981 | > 16 | 0.861 | > 16 | 0.804 | 1.19 | 0.863 | > 16 | 0.904 | > 10.2
COR-L279 (small cell lung carcinoma, suspension) | 0.983 | > 5 | 0.865 | 7.26 | 0.972 | > 8 | 0.899 | > 16 | 0.897 | > 16 | 0.914 | > 2 | 0.555 | 1.39 | 0.801 | 4.37
CP66-MEL (melanoma, adherent) | 0.981 | > 5 | 0.736 | 3.29 | 0.897 | > 8 | 0.977 | > 16 | 0.888 | > 16 | 0.809 | 1.23 | 0.726 | 4.85 | 0.962 | > 10.2
CPC-N (small cell lung carcinoma, suspension) | 0.945 | > 5 | 0.805 | 5.6 | 0.902 | > 8 | 0.825 | 10.8 | 0.911 | > 16 | 0.625 | 0.285 | 0.865 | > 16 | 0.869 | > 10.2
CS1 (bone, adherent) | 0.904 | > 5 | 0.753 | 3.7 | 0.875 | > 8 | 0.885 | > 16 | 0.871 | > 16 | 0.548 | 0.172 | 0.788 | 7.94 | 0.717 | 2.87
CTB-1 (B-cell lymphoma, suspension) | 0.906 | > 5 | 0.88 | > 10 | 0.966 | > 8 | 0.857 | > 16 | 0.687 | 4.07 | 0.495 | 0.12 | 0.611 | 2.26 | 0.668 | 2.24
CTV-1 (acute myeloid leukaemia, suspension) | 0.98 | > 5 | 0.594 | 1.07 | 0.975 | > 8 | 0.867 | 9.9 | 0.552 | 1.34 | 0.382 | 0.0633 | 0.347 | 0.414 | 0.569 | 0.949
Ca9-22 (head and neck, adherent) | 0.987 | > 5 | 0.664 | 1.71 | 0.949 | > 8 | 0.872 | 13.4 | 0.933 | > 16 | 0.759 | 0.653 | 0.621 | 2.1 | 0.829 | 5.76
Ca-Ski (cervix, adherent) | 0.948 | > 5 | 0.582 | 1.07 | 0.934 | > 8 | 0.864 | > 16 | 0.714 | 4.39 | 0.485 | 0.113 | 0.62 | 2.23 | 0.76 | 4.01
Caov-4 (ovary, adherent) | 0.883 | > 5 | 0.828 | > 10 | 0.979 | > 8 | 0.959 | > 16 | 0.809 | 13.6 | 0.69 | 0.551 | 0.93 | > 16 | 0.921 | > 10.2
D-263MG (glioma, adherent) | 0.945 | > 5 | 0.679 | 2.21 | 0.938 | > 8 | 0.79 | 8.86 | 0.887 | > 16 | 0.793 | 1.14 | 0.977 | > 16 | 0.975 | > 10.2
D-283MED (medulloblastoma, adherent) | 0.985 | > 5 | 0.958 | > 10 | 0.966 | > 8 | 0.988 | > 16 | 0.99 | > 16 | 0.529 | 0.149 | 0.625 | 2.14 | 0.991 | > 10.2
